Results taken from the supplement of paper PMC10185492.
The other results are listed elsewhere or left out. Values come from read counts of a selection and are noisy.

system: SARS-CoV-2 3CLpro (nsp5); test: substrate phage enrichment score (protease-eluted vs HEPES control, +1 offset) (ratio); higher = better cleaved substrate; conditions: selection round: 4; protease elution time: 15 min
Procedure: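 Random heptapeptide substrate phage display (M13 pIII fusion, heptapeptide between an N-terminal biotinylated AviTag GLNDIFEAQKIEWHE and pIII; phages immobilised on streptavidin) eluted by cleavage with 50 nM protease in 20 mM HEPES at 37 °C. Selected phages were NGS sequenced, and the enrichment score is (reads in protease sample + 1)/(reads in HEPES blank-selection control + 1).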

Substance	substrate phage enrichment score
MQGTLRA	5.25
FYCPLLW	2.11
RRDEQLP	51
AYFQGGS	5.08
TKSPFQG	2.75
RRNVGND	0.093
LNSEFHR	2.42
PLSAQLQ	> 186
GSVPSLQ	15.5
AMTACGK	> 374
EKPQIHR	> 38
LIKPTMQ	> 34
MRHIERA	5.2
SCPLGSR	1.93
VQRLRVG	2.67
EQNFQGG	> 41
HEPRSPC	> 35
RVQLQAD	> 34
LSLSLPS	0.353
NPHIEPR	5.83
KRSTTLI	> 27
SGRTSSS	0.467
AESRMDL	2.14
NGHVLRS	0.647
TAVNLGR	0.0625

Substance	substrate phage enrichment score
APTSSHR	> 35
SAAHHHH	0.91
KSTQEAH	0.217
EGSRAPC	1.31
WQKNQIQ	> 21
NNQTPDC	> 22
RVPLSRN	2.89
RAAAQHH	1.18
VQSGRYP	2.4
APERAHR	0.143
TVNDFMQ	> 29
PRGVNLQ	> 32
SAAAQQK	1.43
RSERLRE	3.6
KDWLLKG	1.43
RLRLFCR	14
EENGTLQ	8
SCWKEFQ	1.67
KWSGPRL	> 65
GCPTSKA	> 27
GKSQNPR	7.88
GCSCTDR	> 37
ERHTPAL	1.57
SHVNYTD	0.636
PLAAQPA	3.6

Substance	substrate phage enrichment score
SRCPRNE	> 48
RDTARCR	3.4
RALTPNV	8.5
IPSCRCK	0.261
SDAVMET	0.714
CERAVMQ	0.91
KNMTPYC	> 26
PGANVLQ	11
SAAAHNN	1.18
LTGESWH	5
SAAPHHQ	1.35
PTSDCLT	> 23
SQNAKLQ	> 38
LQNLNPT	0.469
NTEQYFQ	> 23
HGQLNVN	> 53
SLHTRHC	0.211
AQNRDGI	> 71
HLNEVFR	> 21
PSTRLQS	> 394
CPHESRS	> 81
KHGQPCR	> 37
STSVTLQ	> 35
SQCMWST	5.25
ASSSSAS	2.25

Substance	substrate phage enrichment score
LPSHDQR	> 21
CPNRLHT	2.91
ARPRPAL	1.73
IRSGPSQ	0.375
RPINGKA	4.67
GAEVRHH	1
WLLESGG	4.2
MNHDENS	> 28
ARRRCEM	> 32
TGAKSRT	1.83
FSFEPGP	5
VQLQSGQ	> 29
CAWPIHR	6.93
VKSAYDT	> 21
CTTVPTN	8
TGRIGNC	0.254
SCTFVNE	27
TQGKSGF	1.2
DNQRLRP	0.238
KTAICRQ	> 27
DFTPTAR	13.5
QYFQGGS	1.18
RKNCGHL	1.12
LETKLQS	> 67
PDCAGMS	1.85

Substance	substrate phage enrichment score
SRSKDVL	3.33
NGRTNYC	3.25
SNTDAPE	2.62
VMMMCGR	2.13
FTAAHHH	1.61
GRAAAHH	1.32
EGEWNPG	1.75
ALCPDVN	1.62
AQTRLMA	> 30
SSKILMP	1.91
PWEGRQC	4.2
GAGRLRQ	2.43
NTTAHHH	0.519
SRCSCAH	> 68
KQYFQGG	0.964
QRTPKCG	2.42
SSTAAHH	1.36
EEAAHHH	1
PHHHHGA	0.579
KAPVLHS	> 30
SILQGSA	> 68
DHHHGAA	6.1
TTSKSLY	7.33
WQPSKLQ	116
DRRDAIT	15.7

Substance	substrate phage enrichment score
SPACVTT	> 44
DLRADNL	0.471
LRAGICR	> 48
SWRVSLQ	> 28
TEKRYPR	1.08
GDTAHWR	2.75
QRFNVTD	> 48
RHQVNGN	> 23
ALSGPPT	0.571
HSGAIWK	1
YQKATAN	> 22
STEAMTE	1.62
GPTAAHH	1.78
HVECPHV	2.18
LSPTVLH	> 77
WRDTNLQ	2.52
YGRVRLQ	> 28
CLLDQKD	4.8
QNSIKES	> 26
QTGPVNR	> 26
RTQPHAT	0.714
AIQSPAL	4.17
SADAHHH	1.15
SRESQCN	10.1
TAKTGSP	> 39

Substance	substrate phage enrichment score
HCLNSAR	0.111
AEAHAPP	3.29
KTTLKPG	> 99
LQPSNSR	> 29
LNSQLQG	6.67
LYNPRGS	0.591
TTWCKCT	> 53
QSKRTLT	> 23
NSRSETQ	5.75
ICASENS	> 24
HLGNSAR	3.67
RNMTEWS	2.06
HMSCSWF	1.78
RFCESMS	0.4
MRACNLQ	> 32
TYPQAQH	1.04
SFQGGSA	1.74
RPAAHHH	1.11
LQANGQQ	> 50
SPNNSLC	5.89
QSSPVMQ	> 28
PCMFESG	2.3
RAAAPHH	0.833
WPQGESQ	> 24
RPHLQGS	13.5

Substance	substrate phage enrichment score
LSPVRLQ	> 25
GHTIREP	0.733
NSLLQGT	> 23
LCGILSW	15
DLWRGCN	> 30
SKGGCTL	0.551
CQKCITR	0.158
GHGQTSA	5.43
SVWSAPE	> 78
PNTDVNN	2.09
TQMEQCC	0.182
SAPLGNR	> 41
ASHKGMN	4.6
LHDPTAV	3.4
TNFQGGS	4.12
CVMKTGP	2.62
IFRVVVR	1.26
ESHAERS	0.365
QAGPVNR	> 28
TSAAHHH	1.08
AGAHHHH	0.533
ALAVGAR	1.56
QIQGWDK	2.57
KRQYMLS	> 29
VASLPGQ	> 54

Substance	substrate phage enrichment score
VQKQTVP	5.75
IHCKGNT	> 21
CATAHHH	5.71
GSPMQSE	1.31
NRSRSCP	0.136
PRTKGDC	6.33
SCAPTLR	> 36
CYVLQLE	0.76
CQSLSVG	1.8
CRQELKE	1.54
TEAAHHH	0.446
LFVCRVG	> 35
RAVGNNT	> 22
NYPRRDP	> 24
KDTLCKM	2.77
GRECTLQ	> 109
VWMGPEE	0.0952
IWSEQFT	1.23
TCRRHEE	0.467
SQETTCQ	0.857
ELRQMPR	> 26
FGFSRLQ	> 32
TDTAPAD	0.087
TYDSPRQ	0.833
SLCPMIG	10.5

Substance	substrate phage enrichment score
QFRGKNT	0.176
KDASAKQ	> 27
SAPPRTM	2.56
HSNLYMS	> 34
NYREAAC	> 50
NRPRCTL	2.41
PCETNSR	> 57
TVTPVEQ	0.278
VVSIPGK	5.14
ALKPLTK	11.9
GRTSSSP	0.628
GYQLIPR	0.6
LYFQGGR	0.818
ANPRTYQ	2.12
RNRRERC	0.765
DNVLILE	7.5
LNFQGGS	1.63
SHCDRSE	> 23
SNLNMSN	0.529
TKLQKNP	> 32
LGEPPCP	0.412
SSRNPKG	1.8
MQAAHHH	1.78
DCALYPG	0.923
VCDGRSL	0.571

Substance	substrate phage enrichment score
SRFLRRV	1.44
SSSDCPR	0.172
MRIDSVE	10.5
HRRCSGS	11.2
SVPVPSA	0.562
AHFRCRN	0.52
SRLVRCG	> 42
HKTHSGR	> 27
AFQGGSA	1
VDRYHRG	8.33
RRRPSLQ	57.7
QVRTSLQ	> 28
CACREGD	4.75
LPPTDSW	1
NRLTGCE	1.9
VKKDVSD	> 52
EPGGSSL	> 38
SELKGTD	> 64
LLSPNRC	76.5
RAPHEKF	0.947
WLGNLQN	18.3
REVSEFY	1.08
MAAHHHH	0.364
LKPTSHS	> 28
ADEGRQI	> 24

Substance	substrate phage enrichment score
RAAENYG	3.83
HATQEPY	0.0576
MQECHCP	3.05
TRTSMKQ	2.8
TTEDKVG	> 22
QDGSAAA	0.1
AYAGETR	12
SQGKLIR	6.33
PIYNEGR	0.72
DLSGRSR	14
GICPDWI	0.786
NPHDPTD	11.7
SLQKTSQ	> 27
SAAAHQK	2.07
TGVSRNL	0.767
SYNGTNL	3
RNGNRAT	> 33
QGPILTR	0.0833
RQNSCRA	> 24
NAVPFLR	> 69
LGSPKLQ	> 22
SQNNKPM	1.39
QGRDLCP	0.956
NSGELDT	31.5
LNVEDTA	0.882

Substance	substrate phage enrichment score
AAAHHHQ	1.09
EGVGVAR	> 27
VGRTSLQ	> 168
AMAAHHH	1.55
QRETSRP	> 30
KPAPSSP	8.86
TKLGATP	0.933
ESIPTAS	2.51
LRGNPTN	0.533
NCNVGAQ	> 23
TKRTMFD	0.71
VRKFRCR	> 37
NPATMLQ	> 122
ARCRDVP	> 41
PGDWPAR	> 22
RNRDERE	1.27
AVEHATQ	3.17
TRSTRNM	27.5
STAAHHH	1.24
LYFPGGS	4.75
KREPQYA	1.98
VRMYESH	0.278
PPVAALQ	> 51
IYDTELQ	10
LPYFQGG	3.5

Substance	substrate phage enrichment score
IPSAVCS	8.33
PVLPSPG	0.192
NPSCTKW	0.345
SYDQCCS	1.17
YVAAHHH	1.43
QCSNVPT	10
SSSACSK	0.735
VFQGGSA	3.4
CSWTGDV	0.333
PSHRCAT	0.143
RPTAQPR	> 34
TKREVNY	13
SPRNHQG	2.75
CQASGQS	5.65
SSVLQAR	> 56
VFRYFWE	6.67
HSQRSIP	8.22
AAAQHQH	1.48
SPCCIRQ	2.22
CQVSKFQ	> 22
AFREPDT	2.11
KQSSGIR	> 30
MPMLQSG	> 61
PCSDQTD	> 34
DEARGGK	2.11

Substance	substrate phage enrichment score
KNDSYKP	0.791
RVRLCCR	> 31
THCQTDL	0.304
CTGEPIR	0.129
VPLKMSG	0.526
RECVVLM	> 47
SAMHKTQ	> 29
LSSPGMS	> 35
PDMRRNN	> 24
KRRPAMQ	> 33
PSYRDVR	1.27
NPSADMR	6.25
SVGGHPR	> 23
VKPAHNR	10.5
RAYPQTG	1.46
GTAILQG	> 27
VHFQGGS	2.12
